Reference: PMC9296036, “A peptide interfering with the dimerization of oncogenic KITENIN protein and its stability suppresses colorectal tumour progression” (Clinical and Translational Medicine, 2022)
These are yes or no findings as the source states them, for the method shown. In cells and extracts the contact can be indirect. Some binding calls cover weakened binding; strength is not graded here. Sequences can lack the tags named with a protein.

By UniProt entry, the sequences of proteins in these tests, tags left out.
UniProt Q9HD67: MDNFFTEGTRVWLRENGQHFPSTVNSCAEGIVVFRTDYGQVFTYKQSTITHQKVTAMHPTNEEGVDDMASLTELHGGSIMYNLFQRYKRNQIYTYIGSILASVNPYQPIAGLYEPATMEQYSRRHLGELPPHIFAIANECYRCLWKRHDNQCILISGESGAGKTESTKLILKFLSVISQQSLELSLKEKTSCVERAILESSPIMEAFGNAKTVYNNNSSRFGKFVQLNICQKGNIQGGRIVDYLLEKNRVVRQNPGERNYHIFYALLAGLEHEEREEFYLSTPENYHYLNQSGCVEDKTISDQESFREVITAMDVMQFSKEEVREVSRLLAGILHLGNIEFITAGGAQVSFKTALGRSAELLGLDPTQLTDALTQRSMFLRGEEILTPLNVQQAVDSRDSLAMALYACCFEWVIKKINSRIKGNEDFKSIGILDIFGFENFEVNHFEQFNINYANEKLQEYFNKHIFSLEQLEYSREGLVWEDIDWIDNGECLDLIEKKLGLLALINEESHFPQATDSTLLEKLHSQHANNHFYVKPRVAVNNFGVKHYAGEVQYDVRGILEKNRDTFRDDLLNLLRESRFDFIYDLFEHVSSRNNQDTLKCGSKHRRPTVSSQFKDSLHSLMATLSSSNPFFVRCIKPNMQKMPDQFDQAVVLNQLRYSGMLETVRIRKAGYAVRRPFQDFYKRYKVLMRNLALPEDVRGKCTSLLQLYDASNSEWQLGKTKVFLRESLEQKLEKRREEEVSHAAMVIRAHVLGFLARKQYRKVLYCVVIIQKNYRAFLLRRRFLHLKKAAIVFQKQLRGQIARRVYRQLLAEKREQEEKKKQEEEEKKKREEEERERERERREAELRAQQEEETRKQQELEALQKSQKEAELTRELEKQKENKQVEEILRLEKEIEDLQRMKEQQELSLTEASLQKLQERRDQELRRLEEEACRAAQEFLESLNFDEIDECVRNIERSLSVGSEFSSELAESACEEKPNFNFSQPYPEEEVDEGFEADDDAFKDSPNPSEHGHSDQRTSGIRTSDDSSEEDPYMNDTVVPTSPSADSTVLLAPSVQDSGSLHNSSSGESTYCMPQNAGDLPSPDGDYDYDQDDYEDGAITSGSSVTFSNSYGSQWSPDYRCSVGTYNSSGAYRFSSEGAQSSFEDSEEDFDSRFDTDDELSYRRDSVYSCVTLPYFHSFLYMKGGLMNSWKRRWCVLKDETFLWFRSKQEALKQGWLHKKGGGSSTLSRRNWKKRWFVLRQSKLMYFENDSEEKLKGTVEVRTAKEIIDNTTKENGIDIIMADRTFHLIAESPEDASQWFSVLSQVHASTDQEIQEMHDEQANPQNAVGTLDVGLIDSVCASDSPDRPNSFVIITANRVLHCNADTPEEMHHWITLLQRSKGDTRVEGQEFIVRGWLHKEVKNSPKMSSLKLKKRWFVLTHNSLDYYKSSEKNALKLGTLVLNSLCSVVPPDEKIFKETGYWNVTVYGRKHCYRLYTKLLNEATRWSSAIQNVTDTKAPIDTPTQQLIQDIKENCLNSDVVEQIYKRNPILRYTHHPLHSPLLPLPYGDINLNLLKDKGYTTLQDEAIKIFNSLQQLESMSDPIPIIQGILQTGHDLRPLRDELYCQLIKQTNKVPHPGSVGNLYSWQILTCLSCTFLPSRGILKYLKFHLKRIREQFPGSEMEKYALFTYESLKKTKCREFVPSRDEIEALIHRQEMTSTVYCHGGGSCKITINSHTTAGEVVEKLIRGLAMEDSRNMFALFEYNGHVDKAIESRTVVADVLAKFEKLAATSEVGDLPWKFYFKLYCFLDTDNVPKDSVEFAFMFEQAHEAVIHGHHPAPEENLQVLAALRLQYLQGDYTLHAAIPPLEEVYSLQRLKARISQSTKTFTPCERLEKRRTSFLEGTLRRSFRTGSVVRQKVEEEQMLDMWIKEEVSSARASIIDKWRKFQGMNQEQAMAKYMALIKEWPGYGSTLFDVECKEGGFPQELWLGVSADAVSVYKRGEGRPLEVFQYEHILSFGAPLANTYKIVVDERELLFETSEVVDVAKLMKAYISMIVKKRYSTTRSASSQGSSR

What was measured:
Experiment in all cases: pull-down; bacterially expressed, purified GST-tagged KITENIN deletion constructs incubated with cell lysates containing Myo10; immunoblot with anti-Myo10 antibody; only the target purified
[1] = target: T1, GST-tagged KITENIN ΔNΔC (110–240) (UniProt Q8TAA9)
T1 sequence: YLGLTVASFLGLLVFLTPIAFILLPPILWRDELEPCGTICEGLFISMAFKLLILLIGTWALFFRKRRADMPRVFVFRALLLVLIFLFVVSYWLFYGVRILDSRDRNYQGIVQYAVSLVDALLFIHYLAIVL

[2] = target: T2, GST-tagged full-length KITENIN (UniProt Q8TAA9)
T2 sequence: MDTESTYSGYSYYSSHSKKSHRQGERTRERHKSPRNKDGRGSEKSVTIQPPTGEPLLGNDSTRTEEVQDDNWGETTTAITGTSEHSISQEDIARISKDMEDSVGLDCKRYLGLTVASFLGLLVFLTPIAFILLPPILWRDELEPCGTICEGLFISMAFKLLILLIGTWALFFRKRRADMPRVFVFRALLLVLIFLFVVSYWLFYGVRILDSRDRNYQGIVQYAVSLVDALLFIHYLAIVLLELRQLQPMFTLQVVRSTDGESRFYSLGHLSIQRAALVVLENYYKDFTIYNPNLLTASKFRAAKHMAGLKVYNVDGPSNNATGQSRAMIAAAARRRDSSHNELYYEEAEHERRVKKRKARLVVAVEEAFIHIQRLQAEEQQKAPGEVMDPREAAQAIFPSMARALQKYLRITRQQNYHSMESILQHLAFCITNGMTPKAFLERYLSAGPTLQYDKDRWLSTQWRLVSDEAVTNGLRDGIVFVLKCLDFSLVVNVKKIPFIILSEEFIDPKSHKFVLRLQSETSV

[3] = target: T3, GST-tagged KITENIN ΔC (1–240) (UniProt Q8TAA9)
T3 sequence: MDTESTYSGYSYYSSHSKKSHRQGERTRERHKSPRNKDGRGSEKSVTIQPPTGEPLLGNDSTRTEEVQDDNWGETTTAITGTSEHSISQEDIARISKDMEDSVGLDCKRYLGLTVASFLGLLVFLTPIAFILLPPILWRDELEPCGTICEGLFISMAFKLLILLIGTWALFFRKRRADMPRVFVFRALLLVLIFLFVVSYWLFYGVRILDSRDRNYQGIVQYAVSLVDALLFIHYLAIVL

[4] = target: T4, GST-tagged KITENIN-CTD (intracellular C-terminal region without membrane portion) (UniProt Q8TAA9)
T4 sequence: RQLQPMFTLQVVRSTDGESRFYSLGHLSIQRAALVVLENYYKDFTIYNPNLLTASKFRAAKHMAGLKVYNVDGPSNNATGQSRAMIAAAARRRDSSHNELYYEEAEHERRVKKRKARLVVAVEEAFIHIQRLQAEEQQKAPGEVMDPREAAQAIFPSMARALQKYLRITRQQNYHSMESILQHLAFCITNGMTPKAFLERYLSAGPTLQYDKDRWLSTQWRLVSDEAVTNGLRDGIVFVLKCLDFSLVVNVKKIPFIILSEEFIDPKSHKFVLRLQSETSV

[5] = target: T5, GST-tagged KITENIN ΔN (110–524) (UniProt Q8TAA9)
T5 sequence: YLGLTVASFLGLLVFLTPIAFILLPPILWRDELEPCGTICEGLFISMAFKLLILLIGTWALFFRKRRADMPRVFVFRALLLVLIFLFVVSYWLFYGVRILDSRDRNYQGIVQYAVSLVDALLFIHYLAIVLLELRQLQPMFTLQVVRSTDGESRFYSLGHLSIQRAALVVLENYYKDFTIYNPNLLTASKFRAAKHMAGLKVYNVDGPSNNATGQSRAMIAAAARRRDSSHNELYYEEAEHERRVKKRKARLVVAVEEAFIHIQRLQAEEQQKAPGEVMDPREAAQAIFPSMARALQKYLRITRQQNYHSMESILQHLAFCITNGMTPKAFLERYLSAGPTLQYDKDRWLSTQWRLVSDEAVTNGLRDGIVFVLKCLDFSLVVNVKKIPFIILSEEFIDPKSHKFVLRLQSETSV

## Myo10 in cell lysates (GST pull-down of Figure 5A) (from UniProt Q9HD67 1-2058)
[1]
  binding: binds
[2]
  binding: binds
[3]
  binding: binds
[4]
  binding: no binding
[5]
  binding: binds
